Data: PubChem BioAssay AID445 (National Center for Advancing Translational Sciences (NCATS), 2006)
About 40 (0.04%) of roughly 110,000 compounds were called active. This list was built around the results that the source calls inconclusive (neither active nor inactive); the mix of calls is not that of the screen. Calls come from the whole dose curve; as a rule, active = well fitted curve in the direction sought with a large enough effect in the signal ratio (not every such curve was filed as active); inconclusive = small, poorly fitted or top-dose-only effect, or a change in a side signal; inactive = flat fitted curve, though single readings scatter; the % refers to the signal ratio. Potencies beside an inconclusive call are fits to weak or partial responses and may not hold up.

Assay: IkB Signaling;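 for IkBa stabilization activation: 0% = basal untreated cells and 100% = reference inhibitor full response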
Conditions: ABC-DLBCL IkBa-CBG/CBR dual luciferase ratio (green luciferase fused to IkBa over red control in OCI-Ly3 lymphoma cells), 4 h; IkBa stabilization activation: at 57.1 µM (top of the series), scaled: untreated 0%, proteasome inhibitor 100% unless noted
In short: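 Curves were fitted separately to fusion (green), unfused (red) and ratio luminescence, then classed by r2, magnitude and activity. Cells: OCI-Ly3, 4 h compound plus doxycycline at 37C; 10 uM MG-132 defined full response.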
Potency is the fitted concentration of half-maximal effect.

SMILES	IkBa stabilization activation	Potency
NC(=O)C1CCN(CC(=O)Nc2ccccn2)CC1	inactive: -0.96%	
O=C(NCCN1CCOCC1)c1cc(-c2cccs2)on1	inconclusive: 4.66% [signal activator]	
CCC1CCCCN1C(=O)CCS(=O)(=O)c1cc2c(cc1C)NC(=O)CO2 (stereo not given)	inconclusive: -0.522% [signal inhibitor]	
Cc1ccc(Nc2c(-c3ccc(C)o3)nc3cccc(C)n23)cc1	inconclusive: 0.928% [signal inhibitor]	
CCOc1ccccc1N1CCN(S(=O)(=O)c2ccc(Cl)s2)CC1	inconclusive: 4.98% [signal inhibitor]	
CCS(=O)(=O)c1ncc(Cl)c(C(=O)NCc2ccccc2)n1	inconclusive: -2.4% [signal inhibitor]	
COCCn1c(=O)c(C)nc2cnc(Oc3ccc(OC)cc3)nc21	inactive: 2.52% [at 11.4 µM, scaled: untreated 0%, proteasome inhibitor 100%]	
COc1ccc(-c2cc(=O)oc3c4c(ccc23)OCN(Cc2ccccc2)C4)cc1	inconclusive: -2.44% [signal inhibitor]	
COCC(C)n1c(C)cc(C(=O)CSc2nc3ccccc3c(=O)[nH]2)c1C (stereo not given)	inconclusive: 10.4% [signal inhibitor]	
c1ccc2c(c1)oc1c(N3CCN(Cc4ccc5c(c4)OCO5)CC3)ncnc12	inconclusive: -1.54% [signal inhibitor]	
O=c1c2ccccc2n2c(-c3ccccc3F)nnc2n1CCc1ccccc1	inconclusive: 0.374% [signal inhibitor]	
COc1ccc(C(=O)Cn2c(Br)nc3c2c(=O)n(C)c(=O)n3C)cc1	inconclusive: 1.09% [signal inhibitor]	
COc1cc(OC)c(N(C)C(=O)c2cc3c(=O)oc4ccccc4c3s2)cc1Cl	inconclusive: -0.55% [signal inhibitor]	
Cc1ccc(-n2nc(C(=O)N(C)Cc3ccccc3)c3c4ccccc4n(C)c3c2=O)cc1	inconclusive: 3.33% [signal inhibitor]	
Cc1ccc(C(=O)N(c2ccc(C)cc2)S(=O)(=O)c2ccc(Cl)cc2)cc1	inconclusive: 8.93% [signal inhibitor]	
COCCn1c(C)cc(C(=O)COC(=O)c2n[nH]c3ccccc23)c1C	inconclusive: 10.7% [signal inhibitor]	
CCCCOCCOCCSC#N	inactive: -0.819%	
COc1cc(C(=O)OCC(=O)c2cc(C)n(C)c2C)cc(NC(=O)c2ccco2)c1OC	inactive: -1.95%	
CCc1ccc(N2CSC3=C(C#N)C(c4cccs4)CC(=O)N3C2)cc1 (stereo not given)	inconclusive: 15.8% [signal inhibitor]	
O=C(CCC1N=C2c3ccccc3N=C(SCC(=O)Nc3ccc(F)cc3)N2C1=O)NCc1cccs1 (stereo not given)	inconclusive: 4.27% [signal inhibitor]	
COc1ccc(-n2c(N)c(C(=O)NCC3CCCO3)c3nc4ccccc4nc32)c(OC)c1 (stereo not given)	inactive: -2.19%	
Cc1ccccc1C(=O)N(Cc1ccc(N(C)C)cc1)CC1CCCO1 (stereo not given)	inconclusive: 2.01% [signal inhibitor]	
Cc1ccc(C2=C(Cl)C(=O)C(c3ccc(C)cc3)=C(Cl)C2=O)cc1	inactive: 1.03% [at 11.4 µM, scaled: untreated 0%, proteasome inhibitor 100%]	
CCN1CCC2(CC1)C(C#N)=C(N)Oc1c2sc2nc(C)cc(C)c12	inactive: 1.06%	

SMILES	IkBa stabilization activation	Potency
CCOC(=O)c1noc2ncnc(NCc3ccccc3OC)c12	inconclusive: -0.0662% [signal inhibitor]	
COc1ccccc1NC(=O)CSC1=Nc2ccccc2C2=NC(CC(=O)NCc3ccc4c(c3)OCO4)C(=O)N12 (stereo not given)	inconclusive: 2.67% [signal inhibitor]	
Cn1c(=O)[nH]c(=O)c2c1nc(CN1CCN(c3cccc(Cl)c3)CC1)n2CCCc1ccccc1	inactive: 7%	
Cc1onc(-c2ccccc2)c1C(=O)N1CCCSC1=Nc1ccccc1	inactive: 2.94%	
COC(=O)c1ccccc1NC(=O)C1CCCN(c2ncnc3onc(C)c23)C1 (stereo not given)	inconclusive: -0.792% [signal inhibitor]	
Cn1cccc1C(=O)NC(=O)COC(=O)Cc1coc2ccc3ccccc3c12	inconclusive: 0.253% [signal inhibitor]	
CCOCCN1CCN(c2c(C)c(C)nc3cc(-c4cc(OC)cc(OC)c4)nn23)CC1	inactive: -1.29%	
CC(NS(=O)(=O)c1ccccc1)C(c1cccs1)N1CCN(c2ccccc2)CC1 (stereo not given)	inconclusive: 5% [signal inhibitor]	
CCOC(=O)c1[nH]c(C)c(C(=O)c2cc(F)ccc2F)c1C	inactive: 0.124%	
COCc1c(C(=O)OCC(=O)N2c3ccccc3CC2C)oc2ccccc12 (stereo not given)	inconclusive: 0.707% [signal inhibitor]	
O=C(Cn1c(=O)nc(-c2ccccc2)c2cc(Cl)ccc21)NCc1ccc(Cl)cc1	inconclusive: 9.31% [signal inhibitor]	
O=C(Nc1cnn(Cc2ccc(Cl)cc2Cl)c1)c1noc2c1CCc1ccccc1-2		inconclusive: 20 µM [signal inhibitor, single point]
COc1ccc(C(CC(=O)Nc2cc(OC)c(OC)c(OC)c2)N2Cc3ccccc3C2=O)cc1 (stereo not given)	inconclusive: 0.69% [signal inhibitor]	
Cc1ccc(C)c(Nc2nn3c(=O)c4cc5c(cc4nc3s2)OCO5)c1	inconclusive: 11.3% [signal inhibitor]	
CCc1ccc(NC(=O)CSc2nc(=O)n(Cc3ccncc3)c3c2CCC3)cc1	inconclusive: -0.701% [signal inhibitor]	
Cc1cc2c(cc1S(=O)(=O)CCC(=O)N1CCCCC1C)OCC(=O)N2 (stereo not given)	inconclusive: 0.972% [signal inhibitor]	
c1ccc(-c2noc(COc3ccc4c(c3)OCO4)n2)cc1	inactive: -1.1%	
CC(C(=O)NCc1ccccc1)N1C(=O)C2CC=C(Cl)CC2C1=O (stereo not given)	inactive: -5.46%	
CCCCN(C)CCNC(=O)CN1C(=O)CSc2ccc(S(=O)(=O)N3CCCCC3)cc21	inconclusive: 0.446% [signal inhibitor]	
CCOC(=O)N1CCc2c(sc(NCc3cccs3)c2C(=O)Nc2ccc(OC)cc2OC)C1	inconclusive: 1.28% [signal inhibitor]	
COc1ccccc1N1CCN(S(=O)(=O)CCNC(=O)Cc2ccc(Cl)cc2)CC1	inconclusive: 2.99% [signal inhibitor]	
COc1ccc(-c2noc(C3CCCN(C(=O)c4ccccc4OC)C3)n2)cc1OC (stereo not given)	inconclusive: 1.76% [signal inhibitor]	
Oc1ccc(Br)cc1-c1nc2cnccn2c1NC1CCCC1	inconclusive: -3.31% [signal inhibitor]	
Cc1ccc(CCNC(=O)c2c[nH]c3ccc(S(=O)(=O)Nc4cccc(C(F)(F)F)c4)cc3c2=O)cc1	inconclusive: 1.6% [signal inhibitor]	

SMILES	IkBa stabilization activation	Potency
CCCS(=O)(=O)c1nnnn1-c1cccc(OC)c1	inconclusive: -3.17% [signal inhibitor]	
CCC1=C(c2ccc(C)cc2)S(=O)(=O)N=C1N1CCC(C(=O)NCCc2ccc(Cl)cc2)CC1	inconclusive: 3.9% [signal inhibitor]	
O=C(CC1N=C2c3ccccc3N=C(SCc3cccc(Cl)c3)N2C1=O)NCCc1ccccc1 (stereo not given)	inactive: -2.44%	
COc1ccc2[nH]c3nc(SCc4nnc(-c5ccc(C)cc5)o4)nnc3c2c1	inactive: 4.84%	
O=S(=O)(NCCOCC(F)(F)F)c1ccc2oc3ccccc3c2c1	inconclusive: 3.58% [signal inhibitor]	
COc1cccc(NC(=O)CSC2=Nc3ccccc3C3=NC(CC(=O)NCc4ccc5c(c4)OCO5)C(=O)N23)c1 (stereo not given)	inconclusive: -0.472% [signal inhibitor]	
CCCC(=O)Nc1cc(C)c2c(=O)oc3ccccc3c2n1	inactive: -3.25%	
COc1ccc(C)cc1NC(=O)Nc1ccccc1OCc1cc(=O)n2ccccc2n1	inactive: 1.68%	
Cc1ccccc1-c1noc(-c2ccc(N3CCN(C)CC3)c([N+](=O)[O-])c2)n1	inactive: 2.2%	
COc1ccc(S(=O)(=O)Nc2ccc(O)c3ccccc23)cc1		inconclusive: 31.6 µM [rising, partial curve]
Cc1cc(C)c(NC(=O)C(=O)NCC(c2cccnc2)N2CCN(Cc3ccccc3)CC2)c(C)c1 (stereo not given)	inconclusive: -1.43% [signal inhibitor]	
CSc1nn(Cc2cccc(Cl)c2)c(N(C(C)=O)C(C)=O)c1S(=O)(=O)c1ccccc1	inactive: -7.53%	
O=C(CSc1nc2nccnc2c(=O)n1CCc1c[nH]c2ccccc12)Nc1ccc(F)cc1	inactive: 0.379%	
COc1ccc(CC(=O)N(Cc2nc(-c3ccc(C)cc3)no2)C(C)C)cc1	inconclusive: -2.73% [signal inhibitor]	
COc1ccc(C2C(=O)N(C3CCC(C)CC3)CC(=O)N2C2CCCC2)cc1OC (stereo not given)	inconclusive: -0.494% [signal inhibitor]	
Cc1ccc(NC(=O)c2ccc(CNS(=O)(=O)c3ccc4c(c3)C(C)(C)C(=O)N4C)cc2)cc1F	inactive: -0.623%	
CCCCOc1ccccc1C(=O)N(Cc1cccc(F)c1)C1CCS(=O)(=O)C1 (stereo not given)	inconclusive: 1.09% [signal inhibitor]	
CCN1CCN(C(c2ccc(OC)c(OC)c2)c2nnnn2C(C)(C)C)CC1 (stereo not given)	inactive: -0.0736%	
CCOc1ccc(CCNC(=O)CSc2nnnn2-c2ccc(C)cc2C)cc1OCC	inconclusive: -2.02% [signal inhibitor]	
Cc1cc(NC(=O)CSc2nc3c([nH]c4ccccc43)c(=O)n2-c2cccc(C(F)(F)F)c2)no1	inactive: 2.63%	
CNc1oc(-c2cccc3ccccc23)nc1C#N	inactive: -1.87%	
O=C(NCC(c1cccnc1)N1CCc2ccccc21)c1ccc(F)cc1 (stereo not given)	inconclusive: 0.591% [signal inhibitor]	
